This note sets out measurements from the BET-seq Pho4 binding data (Le et al. 2018).

This is one part of the list. These are noisy estimates, calculated here from bound and input reads.

In the experiment the target is T1, Pho4 (S. cerevisiae) (UniProt P07270).
T1 sequence: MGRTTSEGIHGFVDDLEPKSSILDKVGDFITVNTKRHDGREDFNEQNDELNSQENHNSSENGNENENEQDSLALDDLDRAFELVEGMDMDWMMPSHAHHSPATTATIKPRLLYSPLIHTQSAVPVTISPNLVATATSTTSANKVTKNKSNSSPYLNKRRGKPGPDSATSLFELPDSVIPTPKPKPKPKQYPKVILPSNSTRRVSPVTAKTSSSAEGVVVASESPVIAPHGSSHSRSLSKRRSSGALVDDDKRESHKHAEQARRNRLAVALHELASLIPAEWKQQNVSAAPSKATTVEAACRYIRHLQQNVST
Nature of the experiment: relative binding free energy (BET-seq); higher = weaker binding. Conditions: reference: library average.
For the sequence TTAGGCACGTGAGCGG, the “relative binding free energy” value worked out at 0.15 kcal/mol.

Turning to AAGTTCACGTGTGAGG, the “relative binding free energy” value worked out at 0.34 kcal/mol.

In the case of GTAGGCACGTGTTAAA, the “relative binding free energy” value was 0.04 kcal/mol.

For ATGAGCACGTGTGGGA, the “relative binding free energy” value was -0.04 kcal/mol.

With CAGGGCACGTGTGTAT, the “relative binding free energy” value is -0.15 kcal/mol.

TCACGCACGTGGGGTA: the “relative binding free energy” value is -0.23 kcal/mol.

Take ATGGGCACGTGATATA: the “relative binding free energy” value is -0.02 kcal/mol.

With AAGGACACGTGGTAGG, the “relative binding free energy” value was -0.08 kcal/mol.

For the sequence TATAGCACGTGGAAGG, the “relative binding free energy” value is -0.06 kcal/mol.

Consider TATGACACGTGAGCGT, for which the “relative binding free energy” value is 0.2 kcal/mol.

TTTCGCACGTGGGGTA: the “relative binding free energy” value is -0.21 kcal/mol.

Consider CTTAGCACGTGGGTAG, for which the “relative binding free energy” value is -0.31 kcal/mol.

On to AATTACACGTGGTTAT, for which the “relative binding free energy” value came to 0.09 kcal/mol.

With TGGTGCACGTGTGTGT, the “relative binding free energy” value is 0.04 kcal/mol.

As for ATCTTCACGTGGGTAG, the “relative binding free energy” value is 0.22 kcal/mol.

As to TGATTCACGTGGATTA, the “relative binding free energy” value came to 0.35 kcal/mol.

Regarding GGGAGCACGTGCGGGT, the “relative binding free energy” value is -0.03 kcal/mol.

Turning to GGGCTCACGTGTTCTG, the “relative binding free energy” value was 0.32 kcal/mol.

For the sequence GTAATCACGTGTTGGT, the “relative binding free energy” value is 0.31 kcal/mol.

On to GTAGACACGTGAGGAG, for which the “relative binding free energy” value worked out at 0.43 kcal/mol.

Turning to ATTCTCACGTGTTGGA, the “relative binding free energy” value was found to be 0.31 kcal/mol.

On to TGACGCACGTGTGTTT, for which the “relative binding free energy” value was determined as 0.02 kcal/mol.

In the case of GTTTCCACGTGGGCGT, the “relative binding free energy” value is -0.1 kcal/mol.

Take AGAAACACGTGAGGGC: the “relative binding free energy” value stood at 0.31 kcal/mol.

As for TAGGGCACGTGTGTAC, the “relative binding free energy” value is -0.33 kcal/mol.

As to AATGCCACGTGTTTTT, the “relative binding free energy” value turned out to be 0.05 kcal/mol.

ATAGACACGTGTTGCT: the “relative binding free energy” value was -0.02 kcal/mol.

With TGAAGCACGTGTCTGT, the “relative binding free energy” value worked out at 0 kcal/mol.

Turning to CGGGTCACGTGGGGAT, the “relative binding free energy” value worked out at 0.04 kcal/mol.

Turning to TCTTTCACGTGTTATG, the “relative binding free energy” value came out at 0.25 kcal/mol.

Take TGAGTCACGTGGTGCT: the “relative binding free energy” value was determined as 0.15 kcal/mol.

With TGGGACACGTGTGTTA, the “relative binding free energy” value was found to be 0.14 kcal/mol.

On to TCGGTCACGTGATTCG, for which the “relative binding free energy” value came out at 0.39 kcal/mol.

Regarding GGGTGCACGTGTTGGA, the “relative binding free energy” value worked out at 0.02 kcal/mol.

As to AAGGGCACGTGTGTGA, the “relative binding free energy” value is -0.07 kcal/mol.

Regarding TTGTCCACGTGTTGGG, the “relative binding free energy” value came out at 0.13 kcal/mol.

For the sequence TGGTTCACGTGGCAAT, the “relative binding free energy” value was 0.18 kcal/mol.

With TGAAGCACGTGCCGGG, the “relative binding free energy” value was -0.16 kcal/mol.

In the case of TTTGTCACGTGCGCAG, the “relative binding free energy” value was -0.08 kcal/mol.

Take AAGGTCACGTGGAGTC: the “relative binding free energy” value is 0.2 kcal/mol.

In the case of TCGGGCACGTGACGGT, the “relative binding free energy” value is -0.1 kcal/mol.

Regarding CTAGGCACGTGGGTTA, the “relative binding free energy” value was -0.39 kcal/mol.

Take TGGGTCACGTGCATAG: the “relative binding free energy” value was -0.01 kcal/mol.

On to AGCGGCACGTGAGGGA, for which the “relative binding free energy” value was 0.19 kcal/mol.

TGCATCACGTGAGGAT: the “relative binding free energy” value was found to be 0.38 kcal/mol.

TCAGGCACGTGTTATA: the “relative binding free energy” value is -0.05 kcal/mol.

As to ACGGGCACGTGTAAGG, the “relative binding free energy” value was 0.1 kcal/mol.

For the sequence CAATGCACGTGGGGGT, the “relative binding free energy” value was -0.16 kcal/mol.

GTTATCACGTGACTGT: the “relative binding free energy” value was determined as 0.33 kcal/mol.

For the sequence AGATCCACGTGTGGTG, the “relative binding free energy” value was -0.11 kcal/mol.

For the sequence AGTACCACGTGGGTGT, the “relative binding free energy” value is -0.22 kcal/mol.

Regarding TGAGACACGTGGTAAG, the “relative binding free energy” value was -0.03 kcal/mol.

Regarding CGGGGCACGTGAGTAG, the “relative binding free energy” value turned out to be 0.17 kcal/mol.

As for AAGGGCACGTGTATTG, the “relative binding free energy” value was -0.21 kcal/mol.

For the sequence GGGGGCACGTGGAACA, the “relative binding free energy” value was -0.07 kcal/mol.

As for TGGATCACGTGATTTA, the “relative binding free energy” value turned out to be 0.25 kcal/mol.

Take TTGAACACGTGGTTTG: the “relative binding free energy” value was -0.02 kcal/mol.

On to TTACGCACGTGGTTAT, for which the “relative binding free energy” value is -0.28 kcal/mol.

Regarding TGTTCCACGTGAAAGG, the “relative binding free energy” value stood at 0.31 kcal/mol.

GGTCTCACGTGGGCTA: the “relative binding free energy” value is 0.15 kcal/mol.

With ATTCTCACGTGTGGCT, the “relative binding free energy” value amounted to 0.33 kcal/mol.

For the sequence ATGTTCACGTGATTCT, the “relative binding free energy” value amounted to 0.27 kcal/mol.

On to CCATTCACGTGGGGTT, for which the “relative binding free energy” value was 0.15 kcal/mol.
